Where two headings read alike, the source gives them in different places.

The values that follow come from patent US20240175865A1, “IMPROVED PROCESSES FOR RATIONALLY-DESIGNING AND PRODUCING BIOMOLECULES” (Her Majesty The Queen in Right of Canada, as represented by …, priority 2020, published 2024).

Assay [1] can be described thus: Equilibrium fluorescence of labelled EF-Tu bound to GTP or GDP. It is filed as binding. As for the experimental part:
Equilibrium fluorescence experiments. […] For all experiments labelled EF-Tu binary complexes were formed by incubating EF-Tu with a 100-fold molar excess of either GTP or GDP at 37° C. for 20 min.
Hydrolysis Protection Assay. EF-Tu·GTP·[^14C]Phe-tRNAPhe ternary complexes were formed as described previously and incubated at 37° C. Aliquots were removed at various time points (0-100 min) and the amount of [^14C]Phe was measured using a Tri-Carb 2800TR Perkin Elmer Liquid Scintillation Analyzer and data plotted as described previously (E. I. DE […], F. MO, H. J. WIEDEN, Construction of a fully active Cys-less elongation factor Tu: functional role of conserved cysteine 81, Biochimica et biophysica acta 1814(5) (2011) 684-92.). The fluorescent dye 5-(2-iodoacetylaminoethyl)aminonaphthalene-1-sulfonic acid (IAEDANS, λex=336 nm, λem=454 nm) and the fluorescent quencher N-(4-dimethylamino-3,5-dinitrophenyl)maleimide (DDPM) were selected as they have a small reported R0 (˜27 Å). […] This was confirmed to not be due to a difference in EF-Tu concentration and indeed a difference in FRET by trypsin digestion (FIG. 17). […]
This conformational change is an order of magnitude slower than two previously measured GTP rates (0.0016±0.002s^−1).

A short description of assay [2]: Conformational change of labelled EF-Tu·GDP or EF-Tu·GTP upon mixing with 10 mM EDTA, stopped-flow. The settings on record: excitation 335 nm.
The target in assay [3] is Escherichia coli EF-Tu variant T34C L265C, IAEDANS/DDPM conjugate (parent EF-Tu SEQ ID NO: 3) (Escherichia coli, UniProt P0CE47, L265C/T34C). Nature of the assay: biochemical. It is filed as binding. Conditions: 20° C., TAKM7.
Assay [4] has as its target T1, Escherichia coli EF-Tu variant E202C, Dansyl conjugate (parent EF-Tu SEQ ID NO: 3) (Escherichia coli, UniProt P0CE47, E202C).
T1 construct: […]
The experiment in a line: biochemical. It is filed as binding. Conditions: 20° C., TAKM7.

Assay [5] addresses T2, Escherichia coli EF-Tu variant L265C, Dansyl conjugate (parent EF-Tu SEQ ID NO: 3) (Escherichia coli, UniProt P0CE47, L265C).
T2 construct: […]
Nature of the assay: biochemical. The assay is classed as binding. Conditions: for koff: in presence of EDTA (10 mM), 20° C., read-out: nucleotide dissociation rate.

Assay [6] addresses Escherichia coli EF-Tu variant T34C L265C (parent EF-Tu SEQ ID NO: 3) (Escherichia coli, UniProt P0CE47, L265C/T34C). Nature of the assay: biochemical. It is filed as binding. Conditions: 20° C., TAKM7.
The mark [7] stands for this setting: mantGTP complex mixed with excess GTP/GDP, read-out: GTP Dissociation Rate koff.
Where [8] appears, read: mantGDP complex mixed with excess GTP/GDP, read-out: GDP Dissociation Rate Koff.

On to “EF-Tu E202C-Dansyl: Escherichia coli EF-Tu E202C single labelled with Dansyl; conformational biosensor”, for which, in assay [1] (direct excitation at 335 nm), the “increase in fluorescence when bound to GTP relative to GDP” value is reported as about 1.5 ×. In assay [2] (EF-Tu·GDP), the “change in fluorescence upon mixing with EDTA, GDP-bound” value was about 15%. Moreover, the “change in fluorescence upon mixing with EDTA, GTP-bound” value in assay [2] (EF-Tu·GTP) was determined as 5%.
“EF-Tu T34C L265C-IAEDANS/DDPM: Escherichia coli EF-Tu T34C L265C double labelled with IAEDANS and quencher DDPM; FRET biosensor”: the “IAEDANS fluorescence when bound to GTP relative to GDP” value in assay [1] (excitation at 336 nm) is given as about 4 ×.
Consider `Nc1nc2c(ncn2[C@@H]2O[C@H](COP(=O)(O)OP(=O)(O)OP(=O)(O)O)[C@@H](O)[C@H]2O)c(=O)[nH]1` [GTP, guanosine triphosphate], for which the koff in assay [3] (setting [7]) came out at 0.014 ± 0.002 s⁻¹; in assay [4] (setting [7]), 0.015 ± 0.005 s⁻¹; in assay [5], 0.35 ± 0.19 s⁻¹; in assay [6] (setting [7]) it was 0.02 ± 0.01 s⁻¹. Moreover, in assay [5] (GTP-bound protein, 10 mM EDTA, excitation 280 nm (FRET)), the “apparent rate of fluorescence (conformational) change upon mixing with EDTA” value was 0.05 ± 0.02 s⁻¹.
For `Nc1nc2c(ncn2[C@@H]2O[C@H](COP(=O)(O)OP(=O)(O)O)[C@@H](O)[C@H]2O)c(=O)[nH]1` [GDP, guanosine diphosphate], the koff was 0.003 ± 0.001 s⁻¹ in assay [3] (setting [8]), 0.05 s⁻¹ in assay [4] (setting [8]), 0.45 ± 0.26 s⁻¹ in assay [5] and 0.002 ± 0.001 s⁻¹ in assay [6] (setting [8]).
